Laboratory results from PubChem BioAssay AID686978 (National Center for Advancing Translational Sciences (NCATS), 2013).
Values joined by “and” are separate entries in the source; they are usually repeats but may differ in a detail not shown here. Equal entries are not always repeated. The whole screen tested about 420,000 compounds, of which about 64,000 (15%) were called active. Inconclusive results, whose numbers are uncertain, are shown with a selection of clear calls. Calls come from the whole dose curve; as a rule, active = well fitted inhibition curve with a large enough effect; inconclusive = small, poorly fitted or top-dose-only effect; inactive = flat fitted curve, though single readings scatter. Where the call is inconclusive, the potency comes from a doubtful curve fit.
% is set by controls: 0 for no effect and ±100 for the full control effect; potency is the fitted concentration of half-maximal effect; tags give direction and shape of the fitted curve.

Assay: qHTS for Inhibitors of human tyrosyl-DNA phosphodiesterase 1 (TDP1): qHTS in cells in absence of CPT; note: nearly all actives have a fitted effect of over 55% in size
Conditions: DT40 Tdp1-/- hTDP1 cells, no CPT, ATP luminescence, 48 h; activity change, negative = growth inhibition: at 46.2 µM (top of the series)
How it was run: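 DT40 Tdp1-/-;hTDP1 cells, no CPT (DMSO vehicle only), 400 cells/well; compounds pin-transferred; ≥48 hr, 37 °C; CellTiter-Glo 30 min RT dark, luminescence read.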
For CCC(C)(C)NC(=O)c1ccc2c(c1)N(CC(=O)NC1CCCC1)C(=O)C(C)(C)O2, the Potency was “inactive”. For COc1ccc(C)cc1NC(=O)c1ccc2c(=O)n3c(nc2c1)CCCCC3, the Potency was “inactive and inconclusive: 18.4 µM [inhibitor, single point]”. With CC(=O)OC1CC2C(C)(C)C(O)CC[C@@]2(C)C2CC[C@@]3(C)C(c4ccoc4)OC(=O)C4OC43[C@]12C (stereo partly drawn) the Potency was active: 20.6 µM. In the case of Cc1nn(-c2ccc(C(=O)O)cc2)c2c1C(=O)CC(C)(C)C2, the Potency is reported as “inactive”. For O=C(Cc1ccccc1[N+](=O)[O-])NC1CC1, the Potency was “inactive”. With Cc1ccc(-n2c(-c3ccc(Br)cc3)n[nH]c2=S)c(C)c1 the Potency was inconclusive: 29.1 µM [inhibitor, single point]. In the case of CCCCCOC(=O)C1=C(C)NC(=O)NC1c1ccccc1 (stereo not drawn), the Potency is reported as inconclusive: 18.4 µM [inhibitor, single point]. With CN(C(=O)Nc1cnccc1C(F)(F)F)C1CCCCC1 the Potency was “inactive”. With Cn1c(=O)c2c(-c3ccc(Cl)cc3)n(Cc3ccc(Cl)cc3)cc2n(C)c1=O the Potency was inconclusive: 29.1 µM [inhibitor, single point]. With Cc1ccc(C(=O)Nc2ccc(N3CCOCC3)cc2N2CCOCC2)cc1 the Potency was inconclusive: 16.4 µM [inhibitor, single point]. In the case of O=C(Cc1ccc([N+](=O)[O-])cc1)Nc1cccc(C(=O)N2CCCCC2)c1, the Potency is reported as inconclusive: 16.4 µM [inhibitor, single point]. For CS(=O)(=O)Nc1nc2n(n1)C(c1ccccc1)CC(c1ccccc1)N2 (stereo not drawn), the Potency was “inactive”. With CC(=O)Nc1ccc(NC(=O)COc2ccc(S(=O)(=O)NC(C)c3ccccc3)cc2)cc1 (stereo not drawn) the Potency was inconclusive: 18.4 µM [inhibitor, partial curve]. For CC(=O)Nc1nc(-c2ccc3c(c2)CC(C)N3C(=O)C2CC2)c(C)s1 (stereo not drawn), the Potency was active: 2.06 µM. In the case of CCn1cc(C(=O)OCC(=O)OC2CC(C)CCC2C(C)C)c(=O)c2ccc(C)nc21 (stereo not drawn), the Potency is reported as inconclusive: 18.4 µM [inhibitor, single point]. For COc1cccc(C(=O)NC2CC3CCCC(C2)N3Cc2ccc(F)cc2)c1 (stereo not drawn), the Potency was inconclusive: 23.1 µM [inhibitor, single point]. In the case of Nc1nc(SCc2ccccc2)c2[nH]cnc2n1, the Potency is reported as “inactive”. For Cc1ccc(CNC(=O)NCc2noc3ccc(C)cc23)cc1, the Potency was inconclusive: 29.1 µM [inhibitor, single point]. With COc1ccc(C(=O)NCCn2cc(SCC(=O)Nc3ccc(C)cc3)c3ccccc32)cc1 the Potency was inconclusive: 16.4 µM [inhibitor, single point]. For CC(C)(C(=O)N1CCC1(C)C(=O)NC1Cc2ccccc2C1)c1ccccc1 (stereo not drawn), the Potency was active: 20.6 µM. For COc1ccc(-c2c(C)c3ccc(O)c(CN4CCOCC4)c3oc2=O)cc1, the Potency was active: 23.1 µM. In the case of O=C1CCCC2=C1C(c1ccncc1)Nc1ccccc1N2 (stereo not drawn), the Potency is reported as “inactive”. With Cc1ccc(OCC(=O)NNC(=O)CSc2ncnc3sc(C)c(C)c23)cc1 the Potency was “inactive”. For Nc1nc2c(s1)CCCCCCCCCC2, the activity change, negative = growth inhibition was inconclusive: -32.1% [inhibitor]. With Nc1n[nH]c(CO)n1 the Potency was “inactive”. For CCC/C(O)=C1\C(=O)CCCC1=NCCc1c(C)[nH]c2ccccc12, the Potency was inconclusive: 25.9 µM [inhibitor, single point]. For Cc1ccc(COCCN2CCN(S(=O)(=O)c3ccc(C)cc3)CCC2=O)cc1, the Potency was inconclusive: 10.3 µM [inhibitor, partial curve]. In the case of C#CCn1c(=O)cc(C)c2ccccc21, the Potency is reported as “inactive”. For CCn1c2ccccc2c2cc(NC(=O)COc3ccc(C)cc3C)ccc21, the Potency was inconclusive: 23.1 µM [inhibitor, single point]. For COc1ccc(OCC(=O)Nc2ccccc2C(=O)Nc2ccc(C(=O)O)cc2)cc1, the Potency was “inactive”. In the case of C#CCNC(=O)C1=C[C@@H](c2ccc(Br)cc2)C[C@@H](OCCCCO)O1, the Potency is reported as “inactive”. In the case of CS(=O)(=O)O/N=C1\CCCCC1c1ccc([N+](=O)[O-])cc1[N+](=O)[O-] (stereo not drawn), the activity change, negative = growth inhibition is reported as inconclusive: -32.2% [inhibitor]. With COc1cc(=O)n2c(c1C(=O)N(C)Cc1nccs1)CCN(Cc1ccc(Cl)cc1)CC2 the Potency was inconclusive: 20.6 µM [inhibitor, single point]. In the case of CN(C)/C=N/c1c(C#N)cnn1-c1ccc(C(F)(F)F)cn1, the Potency is reported as “inactive”. In the case of CCC12CN(C(=O)c3ccc(C)cc3)CC(CC)(CN(C(=O)c3ccc(C)cc3)C1)C2=O, the Potency is reported as inconclusive: 29.1 µM [inhibitor, single point]. In the case of Cc1ccc(/C=C2\Oc3c(ccc(O)c3CN3CCN(C)CC3)C2=O)cc1, the Potency is reported as inconclusive: 29.1 µM [inhibitor, single point]. With Cc1ccc(NC(=S)/N=C(\N)Nc2nc(C)c3cc(C)ccc3n2)c(C)c1 the Potency was active: 11.6 µM. For COc1ccc(C2=Nc3ccccc3NC(=O)C2N(CCc2cc(OC)cc(OC)c2)C(C)=O)cc1 (stereo not drawn), the Potency was inconclusive: 16.4 µM [inhibitor, single point]. In the case of CC(C)(C)Nc1c2ccccc2nc2ccccc12, the Potency is reported as active: 18.4 µM. For COc1ccc(-c2cc(C)no2)cc1S(=O)(=O)Nc1c(C)cc(C)cc1C, the Potency was active: 20.6 µM. In the case of COC(=O)c1sccc1NC(=S)N1C(C)CCCC1C (stereo not drawn), the Potency is reported as “inactive”. With Cc1ccc(Cn2c(CNS(=O)(=O)c3cccc([N+](=O)[O-])c3)nc3cccnc32)cc1 the Potency was inconclusive: 18.4 µM [inhibitor, single point]. For COc1ccc(OC)c(CNC(=O)c2ccc(C)c(NC(=O)c3nsc4ccccc34)c2)c1, the Potency was inconclusive: 29.1 µM [inhibitor, single point]. In the case of O=C(COC(=O)c1cccc(S(=O)(=O)N2CCOCC2)c1)Nc1nc(-c2ccccc2Cl)cs1, the activity change, negative = growth inhibition is reported as inconclusive: -34.6% [inhibitor]. With CCc1cccc(CC)c1NC(=O)C(NS(=O)(=O)c1cccs1)c1ccccc1 (stereo not drawn) the Potency was inconclusive: 23.1 µM [inhibitor, single point]. In the case of O=C(Cc1ncc(C(F)(F)F)cc1Cl)N1CCN(c2ccc(F)cc2)CC1, the Potency is reported as inconclusive: 9.2 µM [inhibitor, partial curve]. With CCC1S/C(=N/N=C/c2ccco2)N(Cc2ccccc2)C1=O (stereo not drawn) the Potency was inconclusive: 29.1 µM [inhibitor, single point]. For CCOCc1c(C(=O)OCC(=O)Nc2ccccc2C(N)=O)oc2ccccc12, the Potency was inconclusive: 3.26 µM [inhibitor, partial curve, poor fit]. With CCc1cc(Br)ccc1NC(=S)NCCc1ccccc1 the Potency was active: 20.6 µM. For COc1cc(OC)cc(C(=O)NCCCN2CCN(CCCNC(=O)c3cc(OC)cc(OC)c3)CC2)c1, the Potency was inconclusive: 29.1 µM [inhibitor, single point]. With COC(=O)[C@@]12C[C@@H](CC(=O)N3CCN(C(=O)c4ccco4)CC3)C(=O)N(Cc3cccc4ccccc34)C1=CCC(C)(C)C2 the Potency was active: 18.4 µM. With COCCn1c(=O)c(-c2cn(C)c3ccccc23)nc2cnc(N3CCNCC3)nc21 the Potency was “inactive”. In the case of Cc1nc2c(-c3ccc(F)cc3)cnn2c2c1CCC2, the Potency is reported as inconclusive: 23.1 µM [inhibitor, single point]. With CSCCC(NC(=O)COc1ccccc1)C(=O)OCCOc1ccc(Br)cc1 (stereo not drawn) the Potency was “inactive”. For CCCn1c(SCC(=O)N(CC)c2c(N)n(Cc3ccccc3)c(=O)[nH]c2=O)nnc1-c1ccncc1, the Potency was “inactive”. For CCOC(=O)c1c(-c2ccccc2)csc1NC(=O)c1cc(=O)c2ccc(C)cc2o1, the Potency was “inactive”. In the case of CCN(Cc1ccncc1)C(=O)CCc1nnc(CCC2CCCCC2)o1, the Potency is reported as inconclusive: 25.9 µM [inhibitor, single point]. For CCc1cc(Cn2nc(-c3ccccc3)cc2C(=O)NCc2ccccc2OC)on1, the Potency was active: 20.6 µM. In the case of COc1ccc(NS(=O)(=O)c2cccc(C(=O)NNC(=O)c3ccccc3OC)c2)cc1, the Potency is reported as inconclusive: 9.2 µM [inhibitor, partial curve]. For CCCCN1CC(COCc2ccccc2)Oc2ccccc2S1(=O)=O (stereo not drawn), the Potency was active: 23.1 µM. For Cc1sc2nc(C(C)C)nc(SCC(=O)N3CCN(C(=O)c4ccco4)CC3)c2c1C, the Potency was inconclusive: 29.1 µM [inhibitor, single point]. For Cc1nc2nncn2c(Nc2ccccc2)c1C, the Potency was active: 18.4 µM. For CC(=O)N1CCc2cc(NC(=O)C3(C)CCN3CCc3ccccc3)ccc21 (stereo not drawn), the Potency was active: 20.6 µM. For O=C1NC(=O)C2(COC(c3cccnc3)OC2)S1 (stereo not drawn), the Potency was “inactive”. With O=C(NCc1cccnc1)C(=O)NCC1OCCN1S(=O)(=O)c1cc(F)ccc1F (stereo not drawn) the Potency was “inactive”. For CC1=Nc2ccccc2/C1=C/c1c(N)n2c(S(=O)(=O)C(C)C)nsc2nc1=O, the Potency was inconclusive: 6.51 µM [inhibitor, single point]. In the case of Cn1c(=O)c2c(nc(Oc3ccc4ccccc4c3)n2C)n(C)c1=O, the Potency is reported as inconclusive: 11.6 µM [inhibitor, partial curve]. For COc1cc(C2NC(=O)c3c(sc4c3CCN(C)C4)N2)cc(Br)c1OC(=O)c1ccc(C)cc1 (stereo not drawn), the Potency was inconclusive: 25.9 µM [inhibitor, single point]. With COCCNC(=O)Nc1cc(C(=O)NCc2ccc(C(C)C)cc2)ccc1N1CCCC1 the Potency was inconclusive: 23.1 µM [inhibitor, single point]. With O=S(=O)(/N=S1\CC=CCN1S(=O)(=O)c1ccccc1)c1ccccc1 (stereo not drawn) the Potency was active: 20.6 µM. In the case of Cc1ccc(-c2csc3nnc(SCc4csc(C)n4)n23)cc1, the Potency is reported as “inactive”. For CCc1cccc(C)c1NC(=O)Cn1cnc2c1c(=O)n(C)c(=O)n2C, the Potency was “inactive”. For CC1=C(C(=O)N(C)C)CC(CC(=O)NC2CCCCC2)C(=O)N1Cc1ccc(C(C)(C)C)cc1 (stereo not drawn), the Potency was inconclusive: 29.1 µM [inhibitor, single point].
